The values that follow come from the supplement of paper PMC9135407.

SMILES strings stand for the structures. Values joined by “and” are separate entries in the source; they are usually repeats but may differ in a detail not shown here. Equal entries are not always repeated. Structures can show the parent of a compound that is named as a salt. Among all 5,800 compounds or so, about 620 (11%) showed activity.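 How the source made its calls: active = score above a cut-off or among the top three wells of a plate; in these data no inactive exceeds 0.85.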 Only a part is listed here, and it is no random draw.

This assay deals with primary human hepatic stellate cells (donor 1). Kind of assay: scaled lipid accumulation score (0 = DMSO-like, 1 = nortriptyline-like); higher = stronger HSC inactivation (lipid re-accumulation), active = hit call of the paper. The note with it: 48 h.
Where [1] appears, read: library stock concentration: 3.33 mM.
[2] abbreviates: library stock concentration: 10 mM.
The mark [3] stands for this setting: library stock concentration: 1 mM.
The mark [4] stands for this setting: library stock concentration: 4.9 mM.

Take `O=C(c1ccccc1)c1ccc2nc(NC(=O)c3csc(C4CCN(c5ncnc6ccsc56)CC4)n3)[nH]c2c1`: the “scaled lipid accumulation score” value by setting is: under setting [1], inactive: ≤ -0.009; under setting [2], inactive: ≤ 0. Turning to `O=C(O)CCC/C=C\C[C@@H]1[C@@H](/C=C/[C@@H](O)Cc2ccccc2)[C@H](O)C[C@@H]1O` [16-phenyl tetranor Prostaglandin F2.alpha.], the “scaled lipid accumulation score” value under setting [3] is inactive: ≤ 0. On the same count and under the same terms, in the case of `CCCCCC(O)C=CC1C2CC(CO2)C1CCCCCCC(=O)O` (stereo not drawn) [9,11-methane-epoxy Prostaglandin F1.alpha.] it was inactive: 0.048.

Turning to `Cn1c(N2CCCCS2(=O)=O)nc(C(=O)NCc2ccc(F)cc2)c(O)c1=O`, the “scaled lipid accumulation score” value was inactive: 0.024 under setting [1] and inactive: ≤ 0 under setting [2]. As to `CC(CN(C)C)CN1c2ccccc2CCc2ccccc21` (stereo not drawn) [Trimipramine maleate salt], the “scaled lipid accumulation score” value is inactive: 0.27. As to `CC(CN(C)C)CN1c2ccccc2CCc2ccccc21` (stereo not drawn) [Trimipramine maleate], the “scaled lipid accumulation score” value by setting is: under setting [4], inactive: 0.715; under setting [2], inactive: 0.647. `COP(=O)(OC)OC(c1ccc(Cl)cc1)P(=O)(OC)OC` (stereo not drawn): the “scaled lipid accumulation score” value under setting [2] is inactive: ≤ -0.001. For `COC(=O)[C@H]1[C@H]2C[C@H]3c4[nH]c5ccccc5c4CCN3C[C@H]2CC[C@@H]1O` [Rauwolscine hydrochloride], the “scaled lipid accumulation score” value was inactive: ≤ 0. For the same compound, the “scaled lipid accumulation score” value under setting [2] was inactive: ≤ 0. In the case of `COC(=O)C(C)(N)Cc1ccc(O)cc1` (racemic) [alpha-Methyl-DL-tyrosine methyl ester hydrochloride], under setting [2], the “scaled lipid accumulation score” value is inactive: ≤ -0.019. Regarding `O=c1c2ccccc2nc2n1CCc1c-2[nH]c2ccccc12` [Rutaecarpine], the “scaled lipid accumulation score” value under setting [2] was active: 0.975. Take `C[N+](C)(C)CC(O)CC(=O)[O-]` (racemic) [DL-Carnitine HCl]: the “scaled lipid accumulation score” value is, setting by setting: under setting [1], inactive: ≤ 0; under setting [2], inactive: ≤ 0. As for `CC(C)C(=O)c1c(C(C)C)nn2ccccc12` [Ibudilast], the “scaled lipid accumulation score” value (library stock concentration: 8.7 mM) is inactive: ≤ -0.006; the “scaled lipid accumulation score” value under setting [2] was inactive: ≤ -0.07 and inactive: ≤ -0.006. Turning to `Nc1ncnc2c1ncn2[C@@H]1O[C@@H]2COP(=O)(O)O[C@H]2[C@H]1O` [Adenosine 3',5'-cyclic monophosphate], under setting [2], the “scaled lipid accumulation score” value was inactive: 0.281.

Regarding `C[N+](C)(C)C[C@H](O)CC(=O)[O-]` [Levocarnitine], the “scaled lipid accumulation score” value (library stock concentration: 12.4 mM) was inactive: ≤ 0. With `CCCCCC#CCC#CCC#CCCCCCCC(=O)O` [8,11,14-Eicosatriynoic Acid], the “scaled lipid accumulation score” value under setting [3] is inactive: ≤ 0. Turning to `Cn1cnc(=N)c2[nH]cnc21` [3-Methyladenine], the “scaled lipid accumulation score” value runs as follows: under setting [1], inactive: ≤ 0; under setting [2], inactive: ≤ 0.

Consider `C=CC[N+]1([C@H]2C[C@H]3[C@@H]4CC[C@H]5C[C@H](O)[C@@H](N6CCOCC6)C[C@]5(C)[C@H]4CC[C@]3(C)[C@H]2OC(C)=O)CCCC1` [Rocuronium Bromide], for which the “scaled lipid accumulation score” value under setting [1] was inactive: ≤ 0 and the “scaled lipid accumulation score” value under setting [2] was inactive: ≤ 0. Turning to `CCCCCC=CCC=CCCCCCCCC(=O)OC(COC(=O)CCCCCCCCCCCCCCC)COP(=O)(O)OCCN` (stereo not drawn) [1-Palmitoyl-2-linoleoyl PE], the “scaled lipid accumulation score” value under setting [3] is inactive: 0.006. Same read-out and setting: in the case of `Cc1ccc(C(=O)Cn2c3c(sc2=N)CCCC3)cc1` [Pifithrin-.alpha.] it was inactive: ≤ 0. For `CC(C)(C)NC(=O)[C@H]1CC[C@H]2[C@@H]3CC[C@H]4NC(=O)C=C[C@]4(C)[C@H]3CC[C@]12C`, the “scaled lipid accumulation score” value under setting [2] was inactive: ≤ 0. For `CC(C)(C)NC(=O)[C@H]1CC[C@H]2[C@@H]3CC[C@H]4NC(=O)C=C[C@]4(C)[C@H]3CC[C@]12C` [Finasteride], the “scaled lipid accumulation score” value is inactive: ≤ 0. Also, the “scaled lipid accumulation score” value under setting [1] was inactive: 0.033. For the same compound, the “scaled lipid accumulation score” value (library stock concentration: 5.4 mM) was inactive: ≤ 0 and inactive: 0.005. In addition, the “scaled lipid accumulation score” value under setting [2] is inactive: ≤ 0. On to `Cc1ccc(C(=O)N(CCCN)[C@@H](c2oc3cc(Cl)ccc3c(=O)c2Cc2ccccc2)C(C)C)cc1`, for which the “scaled lipid accumulation score” value runs as follows: under setting [1], inactive: 0.419; under setting [2], inactive: 0.328. As for `Nc1nc(N)c2nc(-c3ccccc3)c(N)nc2n1` [Triamterene], the “scaled lipid accumulation score” value is inactive: ≤ 0. The “scaled lipid accumulation score” value under setting [1] was inactive: ≤ 0. Under “library stock concentration: 7.9 mM”, the “scaled lipid accumulation score” value was inactive: ≤ 0. In addition, the “scaled lipid accumulation score” value under setting [2] was inactive: ≤ -0.001 and inactive: ≤ 0 and inactive: 0.055. With `C=C1CC[C@H](O)C/C1=C/C=C1\CCC[C@]2(C)[C@@H]([C@H](C)/C=C/[C@H](C)C(C)C)CC[C@@H]12` [Vitamin D2], the “scaled lipid accumulation score” value under setting [1] was inactive: ≤ 0 and the “scaled lipid accumulation score” value under setting [2] is inactive: 0.681. In the case of `C=C1CC[C@H](O)C/C1=C/C=C1\CCC[C@]2(C)[C@@H]([C@H](C)/C=C/[C@H](C)C(C)C)CC[C@@H]12` [Calciferol], the “scaled lipid accumulation score” value is inactive: 0.214. As for `C=C1CC[C@H](O)C/C1=C/C=C1\CCC[C@]2(C)[C@@H]([C@H](C)/C=C/[C@H](C)C(C)C)CC[C@@H]12` [Ergocalciferol], the “scaled lipid accumulation score” value is, setting by setting: (library stock concentration: 5 mM) inactive: 0.006; under setting [2], inactive: ≤ 0.

Turning to `CCCCOc1ccc(C(=O)CCN2CCCCC2)cc1` [Dyclonine HCl], the “scaled lipid accumulation score” value is inactive: ≤ 0 under setting [1] and inactive: ≤ 0 under setting [2]. For `CCCCOc1ccc(C(=O)CCN2CCCCC2)cc1` [Dyclonine hydrochloride], the “scaled lipid accumulation score” value is inactive: 0.064. For the same compound, the “scaled lipid accumulation score” value (library stock concentration: 6.1 mM) is inactive: 0.028. The “scaled lipid accumulation score” value under setting [2] is inactive: ≤ 0. With `CCCCCC(=O)CC[C@H]1[C@H](O)CC(=O)[C@@H]1CCCCCCC(=O)O` [13,14-dihydro-15-keto Prostaglandin E1], the “scaled lipid accumulation score” value under setting [3] was inactive: ≤ 0.

Take `COc1ccc(-c2cc3nccn3c(Nc3ncccc3C(N)=O)n2)cc1OC`: the “scaled lipid accumulation score” value (library stock concentration: 80 uM) was inactive: 0.088, the “scaled lipid accumulation score” value (library stock concentration: 400 uM) was inactive: ≤ -0.009, the “scaled lipid accumulation score” value (library stock concentration: 2 mM) is inactive: 0.133 and the “scaled lipid accumulation score” value under setting [2] was inactive: 0.349. As to `CC[C@H](C)C(=O)O[C@H]1C[C@H](O)C=C2C=C[C@H](C)[C@H](CC[C@@H]3C[C@@H](O)CC(=O)O3)[C@H]21` [Pravastatin lactone], the “scaled lipid accumulation score” value under setting [4] was inactive: ≤ 0. `COc1ccc(CCC(=O)Nc2nc3ccc(Cl)cc3s2)cc1OC`: the “scaled lipid accumulation score” value reads like this: under setting [1], inactive: ≤ -0.009; under setting [2], inactive: 0.079. With `Cc1cc2c(C(=O)NCC(C)c3ccccc3)c(O)c(O)cc2c(O)c1-c1c(C)cc2c(C(=O)NCC(C)c3ccccc3)c(O)c(O)cc2c1O` (stereo not drawn) [Sabutoclax], the “scaled lipid accumulation score” value is inactive: 0.768 under setting [1] and inactive: 0.582 under setting [2]. In the case of `C=C1C(=O)O[C@H]2[C@H]1CC/C(C)=C/CC[C@@]1(C)O[C@@H]21` [Parthenolide], the “scaled lipid accumulation score” value is inactive: 0.539. Besides, the “scaled lipid accumulation score” value under setting [2] is inactive: 0.317 and inactive: 0.269. Under “library stock concentration: 20.1 mM”, the “scaled lipid accumulation score” value is inactive: 0.417. Take `C=C1C(=O)O[C@H]2[C@H]1CC/C(C)=C/CC[C@@]1(C)O[C@@H]21` [(-)-Parthenolide]: the “scaled lipid accumulation score” value by setting is: under setting [1], inactive: 0.099; under setting [2], inactive: 0.534.
